# Measurements: the supplement of paper PMC8728848
# This is one part of the list.
# B1: Epa9 (Candida glabrata), CAGL0A01386g (protein)
# chain: MGSSHHHHHHSSGLVPRGSHMDITPFAHYPRPEGCSSPPNAVSVGLHMDLYNYPYLYVKNPRTGFTNDTDSDADGETDGDSAGGIEGRAGQCWNPEYQDPNFPRYGYKKYGSFGSSDHVNGKISWDHNEFKEGCKPIMARLPTAYNYPAKITFSNFTMVLSGYFKPKSTGLYKFEIHADDFILFNFGSKNAFECCNREESIDNFGPYVAYAMWPNEADQELEVYLFEDSYYPIRLFYNNRDYHSKFMVGFYPPNTEEITYDFDGYLYMLDDTGNECKDSIRYKTVCDD
# Legend:
# Experiment in all cases: glycan array binding signal (z-score within array); higher = stronger binding
# Details in all cases: glycan notation: IUPAC condensed, linker removed
# [1] = biological target: GlcNAc(b1-3)Gal(b1-4)GlcNAc(b1-3)Gal(b1-4)GlcNAc(b1-3)Gal(b1-4)GlcNAc(b1-3)Gal(b1-4)GlcNAc(b1-2)[GlcNAc(b1-3)Gal(b1-4)GlcNAc(b1-3)Gal(b1-4)GlcNAc(b1-3)Gal(b1-4)GlcNAc(b1-3)Gal(b1-4)GlcNAc(b1-6)]Man(a1-6)[GlcNAc(b1-3)Gal(b1-4)GlcNAc(b1-3)Gal(b1-4)GlcNAc(b1-3)Gal(b1-4)GlcNAc(b1-3)Gal(b1-4)GlcNAc(b1-2)Man(a1-3)]Man(b1-4)GlcNAc(b1-4)[Fuc(a1-6)]GlcNAc
# Method in brief: (§1)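 Glycan array data came from 3228 arrays in the Consortium for Functional Glycomics database, and only arrays with an available protein sequence were kept. Glycan names were put into IUPAC-condensed notation, and columns mapping to the same glycan were averaged. The binding signal is a within-array Z-score, averaged across arrays of one protein sequence run at different concentrations or buffers and across linkers. A negative Z-score can be read as non-binding.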
# [2] = biological target: GlcNAc(b1-3)Gal(b1-4)GlcNAc(b1-3)Gal(b1-4)GlcNAc(b1-3)GalNAc
# Method in brief: as §1
# [3] = biological target: GlcNAc(b1-3)Gal(b1-4)GlcNAc(b1-3)GalNAc
# Method in brief: as §1
# [4] = biological target: GlcNAc(b1-3)Gal(b1-4)GlcNAc(b1-3)[GlcNAc(b1-3)Gal(b1-4)GlcNAc(b1-3)]GalNAc
# Method in brief: as §1
# [5] = biological target: GlcNAc(b1-3)Gal(b1-4)GlcNAc(b1-6)[Gal(b1-3)]GalNAc
# Method in brief: as §1
# [6] = biological target: GlcNAc(b1-3)Gal(b1-4)GlcNAc(b1-6)[GlcNAc(b1-3)Gal(b1-3)]GalNAc
# Method in brief: as §1
# [7] = biological target: GlcNAc(b1-3)Gal(b1-4)GlcNAc(b1-6)[GlcNAc(b1-3)]Gal(b1-4)GlcNAc
# Method in brief: as §1
# GlcNAc(b1-3)GalNAc = biological target: GlcNAc(b1-3)GalNAc
# Method in brief: as §1
# GlcNAc(b1-3)Man = biological target: GlcNAc(b1-3)Man
# Method in brief: as §1
# [8] = biological target: GlcNAc(b1-3)[GlcNAc(b1-4)][GlcNAc(b1-6)]GlcNAc
# Method in brief: as §1
# [9] = biological target: GlcNAc(b1-3)[GlcNAc(b1-6)]Gal(b1-4)GlcNAc
# Method in brief: as §1
# [10] = biological target: GlcNAc(b1-3)[GlcNAc(b1-6)]GalNAc
# Method in brief: as §1
# [11] = biological target: GlcNAc(b1-4)Gal(b1-4)GlcNAc
# Method in brief: as §1
# GlcNAc(b1-4)GlcNAc = biological target: GlcNAc(b1-4)GlcNAc
# Method in brief: as §1
# [12] = biological target: GlcNAc(b1-4)GlcNAc(b1-4)GlcNAc
# Method in brief: as §1
# [13] = biological target: GlcNAc(b1-4)GlcNAc(b1-4)GlcNAc(b1-4)GlcNAc(b1-4)GlcNAc
# Method in brief: as §1
# [14] = biological target: GlcNAc(b1-4)GlcNAc(b1-4)GlcNAc(b1-4)GlcNAc(b1-4)GlcNAc(b1-4)GlcNAc
# Method in brief: as §1
# [15] = biological target: GlcNAc(b1-4)[GlcNAc(b1-6)]GalNAc
# Method in brief: as §1
# [16] = biological target: GlcNAc(b1-6)Gal(b1-4)GlcNAc
# Method in brief: as §1
# GlcNAc(b1-6)GalNAc = biological target: GlcNAc(b1-6)GalNAc
# Method in brief: as §1
# [17] = biological target: GlcNAc6S(b1-3)Gal(b1-4)GlcNAc
# Method in brief: as §1
# Kdn(a2-3)Gal(b1-3)GalNAc = biological target: Kdn(a2-3)Gal(b1-3)GalNAc
# Method in brief: as §1
# Kdn(a2-3)Gal(b1-3)GlcNAc = biological target: Kdn(a2-3)Gal(b1-3)GlcNAc
# Method in brief: as §1
# Kdn(a2-3)Gal(b1-4)Glc = biological target: Kdn(a2-3)Gal(b1-4)Glc
# Method in brief: as §1
# Kdn(a2-3)Gal(b1-4)GlcNAc = biological target: Kdn(a2-3)Gal(b1-4)GlcNAc
# Method in brief: as §1
# [18] = biological target: Kdn(a2-3)Gal(b1-4)[Fuc(a1-3)]GlcNAc
# Method in brief: as §1
# Kdn(a2-6)Gal(b1-4)GlcNAc = biological target: Kdn(a2-6)Gal(b1-4)GlcNAc
# Method in brief: as §1
# [19] = biological target: Man(a1-2)Man(a1-2)Man(a1-3)Man
# Method in brief: as §1
# [20] = biological target: Man(a1-2)Man(a1-2)Man(a1-6)[Man(a1-3)]Man
# Method in brief: as §1
# Man(a1-2)Man(a1-3)Man = biological target: Man(a1-2)Man(a1-3)Man
# Method in brief: as §1
# [21] = biological target: Man(a1-2)Man(a1-3)[Man(a1-2)Man(a1-6)]Man
# Method in brief: as §1
# [22] = biological target: Man(a1-2)Man(a1-3)[Man(a1-2)Man(a1-6)]Man(a1-6)[Man(a1-2)Man(a1-2)Man(a1-3)]Man
# Method in brief: as §1
# [23] = biological target: Man(a1-2)Man(a1-3)[Man(a1-2)Man(a1-6)]Man(a1-6)[Man(a1-2)Man(a1-2)Man(a1-3)]Man(b1-4)GlcNAc(b1-4)GlcNAc
# Method in brief: as §1
# [24] = biological target: Man(a1-2)Man(a1-3)[Man(a1-6)]Man(a1-6)[Man(a1-2)Man(a1-3)]Man(b1-4)GlcNAc(b1-4)GlcNAc
# Method in brief: as §1
# [25] = biological target: Man(a1-2)Man(a1-6)[Man(a1-3)]Man(a1-6)[Man(a1-2)Man(a1-2)Man(a1-3)]Man
# Method in brief: as §1
# [26] = biological target: Man(a1-2)Man(a1-6)[Man(a1-3)]Man(a1-6)[Man(a1-2)Man(a1-2)Man(a1-3)]Man(b1-4)GlcNAc(b1-4)GlcNAc
# Method in brief: as §1
# Man(a1-3)[Man(a1-6)]Man = biological target: Man(a1-3)[Man(a1-6)]Man
# Method in brief: as §1
binder,measurement,setting,value
B1,glycan array binding signal (z-score),[1],-0.234
same,glycan array binding signal (z-score),[2],-0.475
same,glycan array binding signal (z-score),[3],-0.458
same,glycan array binding signal (z-score),[4],-0.395
same,glycan array binding signal (z-score),[5],0.614
same,glycan array binding signal (z-score),[6],-0.454
same,glycan array binding signal (z-score),[7],-0.506
same,glycan array binding signal (z-score),GlcNAc(b1-3)GalNAc,-0.493
same,glycan array binding signal (z-score),GlcNAc(b1-3)Man,-0.505
same,glycan array binding signal (z-score),[8],-0.457
same,glycan array binding signal (z-score),[9],-0.452
same,glycan array binding signal (z-score),[10],-0.456
same,glycan array binding signal (z-score),[11],-0.496
same,glycan array binding signal (z-score),GlcNAc(b1-4)GlcNAc,-0.49
same,glycan array binding signal (z-score),[12],-0.472
same,glycan array binding signal (z-score),[13],-0.484
same,glycan array binding signal (z-score),[14],-0.49
same,glycan array binding signal (z-score),[15],-0.483
same,glycan array binding signal (z-score),[16],0.361
same,glycan array binding signal (z-score),GlcNAc(b1-6)GalNAc,-0.467
same,glycan array binding signal (z-score),[17],1.15
same,glycan array binding signal (z-score),Kdn(a2-3)Gal(b1-3)GalNAc,-0.446
same,glycan array binding signal (z-score),Kdn(a2-3)Gal(b1-3)GlcNAc,-0.454
same,glycan array binding signal (z-score),Kdn(a2-3)Gal(b1-4)Glc,-0.399
same,glycan array binding signal (z-score),Kdn(a2-3)Gal(b1-4)GlcNAc,-0.394
same,glycan array binding signal (z-score),[18],-0.358
same,glycan array binding signal (z-score),Kdn(a2-6)Gal(b1-4)GlcNAc,-0.387
same,glycan array binding signal (z-score),[19],-0.43
same,glycan array binding signal (z-score),[20],-0.491
same,glycan array binding signal (z-score),Man(a1-2)Man(a1-3)Man,-0.467
same,glycan array binding signal (z-score),[21],-0.635
same,glycan array binding signal (z-score),[22],-0.575
same,glycan array binding signal (z-score),[23],-0.329
same,glycan array binding signal (z-score),[24],-0.578
same,glycan array binding signal (z-score),[25],-0.519
same,glycan array binding signal (z-score),[26],-0.486
same,glycan array binding signal (z-score),Man(a1-3)[Man(a1-6)]Man,-0.466
